Test results from paper PMC3268818 (Journal of Molecular Biology, 2011).

Target: the molecule itself
Assay: SEC-MALS

B1: BclXL_dTM, human BclXL in which the TM domain is deleted ([…]) (domain or fragment)
chain: not shown
stoichiometry N: 2
